The RNAGym collection of RNA variant scans (doi:10.1073/pnas.2313332121)
This sample is rich in variants without activity.

B1: TPR 5TU (parent)
chain: GGAUCUUCUCGAUCUAACAAAAAAGACAAAUCUGCCACAAAGCUUGAGAGCAUCUUCGGAUGCAGAGGCGGCAGCCUUCGGUGGCGCGAUAGCGCCAACGUUCUCAACUAUGACACGCAAAACGCGUGCUCCGUUGAAUGGAGUUUAUCAUG

Variants of: B1
Experiment: polymerase ribozyme fitness, log enrichment relative to wild type (log ratio); higher = more active; in vitro selection for triplet polymerase activity
Outline: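 Each subunit of a heterodimeric triplet polymerase ribozyme was mutagenized into a library by PCR, transcribed, and subjected to one round of in vitro selection, run in triplicate. Libraries were annealed with a biotinylated primer, the partner subunit and triplets, incubated frozen at −7 °C, and extended constructs were gel-excised, captured on streptavidin beads and recovered by RT-PCR. Input and output libraries were sequenced on Illumina, keeping genotypes with ≥10 input reads and ≥1 read per output. Fitness is log base 2 of genotype enrichment divided by wild-type enrichment, from inverse-variance-weighted replicate averages.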

Variant | polymerase ribozyme fitness (log ratio)
G42U U55A C87G C116G C118A G136C | ≤ -4.2
G42U U55A G81U U102G A142U | ≤ -4.2
G42U U56A C75A C95U U144C | ≤ -4.2
G42U U56A G58A C76U C95G A98G | ≤ -4.2
G42U U77C A91G | ≤ -4.2
G42U U102A C118U A137C A147G G152U | ≤ -4.2
C43A A47C A142C | ≤ -4.2
C43A A49U A60G C85U | ≤ -4.2
C43A A52G C69U A91U C96U A106U | ≤ -4.2
C43A A60C | ≤ -4.2
C43A A64C C72U | ≤ -4.2
C43A A73G G83A A89U U90C G136C G141C | ≤ -4.2
C43A A91U C95G A107G A137U G143A | ≤ -4.2
C43A A91U G140C A150C | ≤ -4.2
C43A A115U C118G | ≤ -4.2
C43A C54G G74C A89C A115G | ≤ -4.2
C43A C54G G88A U111G G133U A137C | ≤ -4.2
C43A C54U C85G A97U G141U U151G | ≤ -4.2
C43A C57G C69A A91U A138G G143U | ≤ -4.2
C43A C57G G84A | ≤ -4.2
C43A C63U U90A | ≤ -4.2
C43A C69A A91G G92A G140C | ≤ -4.2
C43A C76G G100C C149U A150G | ≤ -4.2
C43A C76U G80A G94U U101A A120C G126C U151A | ≤ -4.2

Variant | polymerase ribozyme fitness (log ratio)
C43A C79G C85U A106G C118U G141C | ≤ -4.2
C43A C79G G83C C85A C93U G141C | ≤ -4.2
C43A C79U C93G A122C G143A | ≤ -4.2
C43A C87A A89G C93U U135G | ≤ -4.2
C43A C87G C132A | ≤ -4.2
C43A C96A U101G A150U | -4.16
C43A G48U U78C G83A U90G | ≤ -4.2
C43A G50A A106G | ≤ -4.2
C43A G50A C72U G84U U90A C103A G141U | ≤ -4.2
C43A G50C C57A A89C C96U C123U U144G | ≤ -4.2
C43A G58A C95U C105G A107G G136A A137U U151A | ≤ -4.2
C43A G58C C72U G94U U102C U139A | ≤ -4.2
C43A G58C C99U U130C C131U | ≤ -4.2
C43A G58C G59U G67U | ≤ -4.2
C43A G59U G86A C103A A138C | ≤ -4.2
C43A G62A G83U G88A C103G G133C | ≤ -4.2
C43A G68C C93U G126U C132G | ≤ -4.2
C43A G80C | ≤ -4.2
C43A G80C G94U | ≤ -4.2
C43A G83C U90G G140U | ≤ -4.2
C43A G83C U139A | ≤ -4.2
C43A G84C | ≤ -4.2
C43A G86A A119U A120C C129G A138U | ≤ -4.2
C43A G86U | ≤ -4.2

Variant | polymerase ribozyme fitness (log ratio)
C43A G92A C118A | ≤ -4.2
C43A G94A C132U | ≤ -4.2
C43A G94C C95U G133C U135C | ≤ -4.2
C43A G94C G143U | ≤ -4.2
C43A U44A A91U G141U A150C | ≤ -4.2
C43A U45G U90A U102G G140A A147C | ≤ -4.2
C43A U53A C57A C95U | ≤ -4.2
C43A U53G A64U C95U A110U A150C | ≤ -4.2
C43A U53G C87G U102C C114G | ≤ -4.2
C43A U53G U56G A97U A137G | ≤ -4.2
C43A U55G G84U G88A A97G U134A C149U | ≤ -4.2
C43A U55G G94U A121U | ≤ -4.2
C43A U61A U127C C132U U145G | ≤ -4.2
C43A U90A C131G G140U | ≤ -4.2
C43A U127A A142G | ≤ -4.2
C43G A49C C76A G84A C105G | ≤ -4.2
C43G A49G G68U G86C C105U C116U | ≤ -4.2
C43G A60U A66C C93U C123G G140C | ≤ -4.2
C43G A64U A66G C93U C105G U109G | ≤ -4.2
C43G A73G C75A G80A C105U G143C | ≤ -4.2
C43G A73G C93U A115C | ≤ -4.2
C43G C51G C93G | ≤ -4.2
C43G C54A U55A A73G G74C G124C | ≤ -4.2
C43G C54G A91G | ≤ -4.2

Variant | polymerase ribozyme fitness (log ratio)
C43G C54U A66C G94A A107U A120U U146A | ≤ -4.2
C43G C75A A91U C96U C118G U148C | ≤ -4.2
C43G C85G | ≤ -4.2
C43G C87U U109G | ≤ -4.2
C43G C93G U109A U127C U139C | ≤ -4.2
C43G C96A G117U A120U G133A G136U | ≤ -4.2
C43G C108A | ≤ -4.2
C43G G46U G80U C103U A121G | ≤ -4.2
C43G G50C G62A G84A G92C | ≤ -4.2
C43G G50U C57U G140U U146A | ≤ -4.2
C43G G59C U104C U134C A138C | ≤ -4.2
C43G G67U G83U C93G C103U C116A | ≤ -4.2
C43G G80C U135G | ≤ -4.2
C43G G80U G84A C93A U134C | ≤ -4.2
C43G G83A A138C | ≤ -4.2
C43G G83C | ≤ -4.2
C43G G83C A107U | ≤ -4.2
C43G G83U A97U U104C C116U A137C | ≤ -4.2
C43G G86A | ≤ -4.2
C43G G86C A137G | ≤ -4.2
C43G G88A C95U C105A | ≤ -4.2
C43G G124U | ≤ -4.2
C43G U44A C75G C129A G133C | ≤ -4.2
C43G U53A A60U C96A U148G | ≤ -4.2

Variant | polymerase ribozyme fitness (log ratio)
C43G U53A G83U C95A | ≤ -4.2
C43G U53G G70A C99G A113G C118G | ≤ -4.2
C43G U55A G70A C79A G81U C93U U139G | ≤ -4.2
C43G U55A U61G G86A A89G A122U | ≤ -4.2
C43G U56A C76A | ≤ -4.2
C43G U56G C96U U139G U148G | ≤ -4.2
C43G U61G G74C | ≤ -4.2
C43G U78C A98U | ≤ -4.2
C43G U90C C116G | ≤ -4.2
C43U A47C G70A | ≤ -4.2
C43U A47G A49C C93G C99A C103A C108U U145C | ≤ -4.2
C43U A47G A64C G67U C96U G141A | ≤ -4.2
C43U A47U C51U A52G G143A | ≤ -4.2
C43U A47U G59A C75A C93U G126C G133A | ≤ -4.2
C43U A49C G62C G67A C85G U101G C118A G141C | ≤ -4.2
C43U A52C C57U G83A A89C | ≤ -4.2
C43U A52C U53A G92A | ≤ -4.2
C43U A52G G84A G92U U148A A150U | ≤ -4.2
C43U A64C A89U C96A U135C A150G | ≤ -4.2
C43U A64U C69A C103G G133C | ≤ -4.2
C43U A66C G86A C114G A119U A137U A150G | ≤ -4.2
C43U A73G C79A U134A | ≤ -4.2
C43U A91G | ≤ -4.2
C43U A98G U102G U111C A138C | ≤ -4.2

Variant | polymerase ribozyme fitness (log ratio)
C43U A106G | ≤ -4.2
C43U A113G | ≤ -4.2
C43U A121G U135G | ≤ -4.2
C43U C51A C85U A107U U135C | ≤ -4.2
C43U C51U C95A U109G | ≤ -4.2
C43U C51U G59A G83U G86C C95A | ≤ -4.2
C43U C54A U55C C85U C99G A147G | ≤ -4.2
C43U C54G U56A C85G G88A G128A C131U U144G | ≤ -4.2
C43U C54U U61A A64C G84U U127A C131G A142G | ≤ -4.2
C43U C57G C75G C95U | ≤ -4.2
C43U C57U C76A C79A G92C U101G A122U | ≤ -4.2
C43U C63U A73C U78A G84U U90G C93U A119U A142U | ≤ -4.2
C43U C72U C93G C95U | ≤ -4.2
C43U C72U G84A A110C | ≤ -4.2
C43U C72U G92U | ≤ -4.2
C43U C76A C95U U135A | ≤ -4.2
C43U C79A | -4.15
C43U C85G | ≤ -4.2
C43U C85U A89G A97G A150G | ≤ -4.2
C43U C87G G141C | ≤ -4.2
C43U C93U C149A | ≤ -4.2
C43U C95A | -4.15
C43U C96A U109A A115G G124A | ≤ -4.2
C43U C96U A137U | ≤ -4.2

Variant | polymerase ribozyme fitness (log ratio)
C43U C99G G126A G133U | ≤ -4.2
C43U C99G U151C | ≤ -4.2
C43U C105A A113U C132U | ≤ -4.2
C43U C132U | ≤ -4.2
C43U G50A A73G C76A C95A A142C | ≤ -4.2
C43U G50A A98G C114U | ≤ -4.2
C43U G50A U56A C69A C95U A137C C149G | ≤ -4.2
C43U G50C U55G A89U C95A A98U G124A C131G | ≤ -4.2
C43U G50C U61A C63A A73G C85G U90C A137G G143A U144G | ≤ -4.2
C43U G50U C76A G83A C95U | ≤ -4.2
C43U G50U U55A C76U G136A G152U | ≤ -4.2
C43U G58A A60U U82G C93A A115C | ≤ -4.2
C43U G58U U78A U82G C129A U145G | ≤ -4.2
C43U G59A | ≤ -4.2
C43U G59A C95U U135G | ≤ -4.2
C43U G59C U77A U111C | ≤ -4.2
C43U G62A A66C G83C U90A | ≤ -4.2
C43U G62A A119U U134A | ≤ -4.2
C43U G62C G67U C103G A122G C131A | ≤ -4.2
C43U G65A G81U A91C G94A C118U U146A | ≤ -4.2
C43U G67C A73U C95U | ≤ -4.2
C43U G71A | ≤ -4.2
C43U G74A C85G U139A A142G | ≤ -4.2
